Test results taken from article PMC4336329 (PLoS ONE, 2015).
About 14,000 (4.5%) of roughly 310,000 compounds showed an effect of 50% or more. The effect is printed as a negative number. This is one part of the list.

Biological target: human ether-à-go-go-related gene (hERG) potassium channel (human, UniProt Q12809)
Experiment: primary screen, population patch clamp on CHO cells stably expressing hERG
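Also: peak tail current of the secondary pulse compared with the same well before compound.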

Sequence of human ether-à-go-go-related gene (hERG) potassium channel (Q12809 whole entry, looked up): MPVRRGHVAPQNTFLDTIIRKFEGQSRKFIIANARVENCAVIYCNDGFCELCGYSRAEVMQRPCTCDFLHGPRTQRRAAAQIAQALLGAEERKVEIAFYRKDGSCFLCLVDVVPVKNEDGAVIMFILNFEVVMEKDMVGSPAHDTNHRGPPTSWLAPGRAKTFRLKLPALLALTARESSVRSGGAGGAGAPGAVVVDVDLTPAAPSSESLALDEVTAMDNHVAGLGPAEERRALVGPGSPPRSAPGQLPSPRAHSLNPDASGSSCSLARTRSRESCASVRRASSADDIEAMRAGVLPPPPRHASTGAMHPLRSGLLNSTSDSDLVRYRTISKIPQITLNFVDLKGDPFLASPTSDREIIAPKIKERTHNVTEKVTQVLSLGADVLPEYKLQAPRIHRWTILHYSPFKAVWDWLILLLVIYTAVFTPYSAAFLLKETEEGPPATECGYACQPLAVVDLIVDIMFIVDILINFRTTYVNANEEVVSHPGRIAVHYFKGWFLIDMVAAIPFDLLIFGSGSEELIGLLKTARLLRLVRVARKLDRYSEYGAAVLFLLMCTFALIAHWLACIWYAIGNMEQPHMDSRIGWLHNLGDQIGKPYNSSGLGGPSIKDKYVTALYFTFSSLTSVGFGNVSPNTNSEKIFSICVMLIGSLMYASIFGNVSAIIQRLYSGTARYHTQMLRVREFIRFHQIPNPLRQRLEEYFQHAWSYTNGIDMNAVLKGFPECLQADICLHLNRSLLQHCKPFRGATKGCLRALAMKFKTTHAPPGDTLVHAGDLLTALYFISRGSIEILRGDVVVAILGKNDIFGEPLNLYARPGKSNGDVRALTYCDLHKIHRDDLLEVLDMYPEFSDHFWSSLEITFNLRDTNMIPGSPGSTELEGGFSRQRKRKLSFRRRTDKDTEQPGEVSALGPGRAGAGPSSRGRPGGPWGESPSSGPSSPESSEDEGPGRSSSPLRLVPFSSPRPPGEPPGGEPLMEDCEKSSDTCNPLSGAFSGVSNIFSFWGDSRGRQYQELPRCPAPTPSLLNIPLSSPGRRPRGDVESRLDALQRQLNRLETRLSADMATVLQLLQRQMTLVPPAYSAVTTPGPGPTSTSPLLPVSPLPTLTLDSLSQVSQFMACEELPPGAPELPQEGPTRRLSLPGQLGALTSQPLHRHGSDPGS

Structure (SMILES) | hERG current change (%, negative = inhibition) at 10uM [%]
O=C(O)c1ccccc1C(=O)NNc1ccc(Cl)cc1 | 8.27
N#C/C(=C\c1c(N2CCC(C(N)=O)CC2)nc2ccccn2c1=O)C(=O)NCc1ccco1 | -15.4
COC(=O)Cn1c(Cc2ccccc2)nc2ccccc21 | -4.75
Cc1ccc(S(=O)(=O)NCCN2CCN(S(=O)(=O)c3ccccc3Cl)CC2)cc1 | -18
OC1(c2nc3ccccc3[nH]2)CCCCC1 | 13.8
CCC(C)NS(=O)(=O)c1ccc(OCC(=O)NCc2ccc3c(c2)OCO3)cc1 (stereo not shown) | -21.5
Cc1ccc2[nH]c(O)c(N=NC(N)=S)c2c1 | 19.3
Fc1ccc(-n2c(-c3ccco3)nc3nc4ccccc4nc32)cc1 | 5.91
CCOc1ccc(NC(=O)CC2C(=O)N(c3ccccc3)C(=O)N2Cc2ccco2)cc1 (stereo not shown) | -9.42
O=C(NCC(=O)N1CCCCCCC1)c1ccc(Br)o1 | 3.02
CC1CCN(CC(C)OC(=O)c2ccco2)CC1.Cl (stereo not shown) | 16.1
COc1cccc(CNc2nc3nc4c(c(=O)n3[nH]2)CCC4)c1 | -8.37
COC(=O)c1[nH]c2c(c1C)C(=O)CC(c1ccc(OC)c(OC)c1)C2 (stereo not shown) | -0.262
CC(=O)Cc1nsc(NC(=O)c2cc(-c3cccc(C(F)(F)F)c3)oc2C)n1 | 4.23
CCn1c(=O)c2cc(C(=O)NCCOC)sc2c2ccccc21 | -8.05
CCOC(=O)C1(C)NC(c2ccccc2F)C2C(=O)N(c3cccc(C(C)=O)c3)C(=O)C21 (stereo not shown) | 12.3
CSCCC(NC(=O)c1ccco1)C(=O)OC(C)C(=O)NC(=O)NC1CCCCC1 (stereo not shown) | -6.77
COc1ccc(NC(=O)c2ocnc2C)cc1OC | 13
COCCCNC(=S)NC(=O)c1ccccc1 | 20.5
COc1ccc(C(C)(C)NC(=O)C2CCC(=O)N(C3CCCC3)C2)cc1OC (stereo not shown) | 10.3

Structure (SMILES) | hERG current change (%, negative = inhibition) at 10uM [%]
COC(=O)CNC(=O)c1ccccc1C | 11.2
CCOc1ccc(C(=O)Nc2cc(S(=O)(=O)Nc3ccccc3Cl)ccc2N2CCOCC2)cc1 | 6.95
O=C1CN(C(=O)COc2ncnc3ccccc23)c2ccccc2N1 | 0.41
O=C(CCc1nnc(Cc2ccc3c(c2)OCO3)o1)NC(c1ccccn1)C(F)(F)F (stereo not shown) | 17.4
O=C(Cn1c(=O)[nH]c2ccccc2c1=O)Nc1cccnc1 | 7.83
NC(=O)c1ccc(C(F)(F)F)n(Cc2ccccc2Cl)c1=O | 11.9
CCN(C(=S)Nc1ccc(Oc2ccccc2)cc1)c1ccccc1 | 38
N/C(=N\OC(=O)Cc1cccs1)c1ccc(Br)cc1 | -0.762
O=C(O)c1ccccc1COc1ccccc1Cl | 12.5
COC(=O)C1=C(C)N(CCCC(=O)O)C(=O)NC1c1cccc2ccccc12 (stereo not shown) | 5.92
COc1cccc(-n2cnc3sc4c(c3c2=O)CCC4)c1 | -14
CSc1ccccc1C(=O)NCCc1ccc(S(=O)(=O)N2CCCCC2)cc1 | -25.2
Cc1ccc(C2CC(c3ccco3)n3ncnc3N2)cc1 (stereo not shown) | -9.19
CC(C)C1O/C(=N/C(=O)Nc2ccc(Cl)c(Cl)c2)NC1=O (stereo not shown) | 4.65
NC(=O)c1cc(N=Nc2c(N)[nH]n(-c3c(Cl)cc(Cl)cc3Cl)c2=O)ccc1Cl | 13.2
COc1cc(/C=C2\C(=N)N3N=C(S(C)(=O)=O)SC3=NC2=O)ccc1OCCOc1ccc(C)cc1 | 19.7
CC(C)(CCC(=S)N1CCOCC1)C1CCCCC1 | 12
Cc1nc2ccccc2cc1C(=O)N/N=C/c1ccccc1[N+](=O)[O-] | -6.56
C=CCc1ccc(OCc2ccc(C(=O)OC)o2)c(OC)c1 | -12.1
O=C(NC(=S)Nc1ccc2oc(=O)ccc2c1)c1cccc(Cl)c1 | 4.11

Structure (SMILES) | hERG current change (%, negative = inhibition) at 10uM [%]
Cc1ccc(NC(=O)Nc2cccc(Cl)c2)c(C(=O)O)c1 | 19.6
CC1CC(C)CN(C(=S)NC2CCCCC2)C1 (stereo not shown) | -6.05
COc1ccc(N=NC2C(=O)N(c3ccccc3)N=C2C)cc1 (stereo not shown) | 29
O=C(c1ccc(S(=O)(=O)c2ccccc2)cc1)N1CCc2ccccc2C1 | 14.5
CCOC(=O)Oc1ccc2c(c1)C(C)=CC(C)(C)N2C(=O)OCC | 13.1
CC(=O)c1ccc(N2CCN(C(=O)C3CCN(S(=O)(=O)c4ccc5c(c4)CC(C)N5C(C)=O)CC3)CC2)cc1 (stereo not shown) | -1.37
CCOC(=O)C1=NOC(CNC(=O)c2c(-c3ccccc3Cl)noc2C)C1 (stereo not shown) | 15.8
Cc1ccc(SCc2cc(=O)n3ccsc3n2)c(C)c1 | -30.5
NC(=O)Nc1ccc(F)cc1 | -5.1
O=C(C(Cc1ccccc1)n1cccc1)N1CCCCC1 (stereo not shown) | 2.03
O=C1C(Oc2ccccc2)C(c2cccs2)N1Cc1ccc2c(c1)OCO2 (stereo not shown) | -2.74
O=S(=O)(c1ccc(Cl)cc1)c1cnc2ccccc2n1 | 11.9
COC(=O)C(NS(=O)(=O)c1ccc(N2CCCC2=O)cc1)c1ccccc1 (stereo not shown) | 1.17
CCN(C(=O)CN1C(=O)c2ccc([N+](=O)[O-])cc2C1=O)C1CCCCC1 | -9.73
CNC(=O)c1cc(C(=O)c2ccccc2Br)c[nH]1 | 9.8
Cc1c(OC(C)C(=O)NCCCN2CCOCC2)ccc2c3c(c(=O)oc12)CCCC3 (stereo not shown) | -1.57
COc1ccc(N2CCN(C(=O)CCCSc3nc4ccccc4[nH]3)CC2)cc1 | -62.3
O=C(NCC1CCCO1)/C(=C/c1ccccc1)NC(=O)c1ccccc1 (stereo not shown) | -6.25
